The supplement of paper PMC3334620
The full ranking holds about 33,000 sequences; the median of “E-score (-0.5 to 0.5)” is about -0.01, and the highest 2% start at about 0.26. The list shows a part of the results.

What follows are sequences tested against Ste12 (UniProt P13574) (assay: PBM E-score (8-mer binding enrichment) (E-score (-0.5 to 0.5)); higher = stronger / more preferred TF binding; most listed sequences are background and not binding sites). Settings: protein concentration: 200 nM; construct: GST-DNA-binding domain.
Procedure: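 Universal 'all 10-mer' protein binding microarrays (Agilent AMADID 015681) probed with GST-tagged S. cerevisiae TFs (full-length or DBD) made by in vitro transcription/translation (PURExpress), about 100-200 nM. Bound TF was detected with fluorescent anti-GST. Each ungapped 8-mer (which stands for itself and its reverse complement) is scored by the PBM enrichment score (E-score), a modified Wilcoxon-Mann-Whitney statistic from -0.5 to +0.5, computed with the Universal PBM Analysis Suite. Scale: above 0.35 generally sequence-specific binding.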

| Sequence | PBM E-score |
| --- | --- |
| GATATTGC | 0.0418 |
| CGGGCATC | -0.17 |
| GATAATAA | 0.21 |
| CGGAAGTA | 0.00464 |
| GCGAAGAC | -0.141 |
| CGTTCTTC | -0.0393 |
| GAAAACCC | 0.073 |
| AGCCCCAG | -0.158 |
| AATGAGCA | -0.0226 |
| AATTCATC | -0.216 |
| GTTCACCA | -0.0697 |
| ATGTTCTA | 0.0169 |
| AAACTTGC | 0.0912 |
| ACCTCCCA | -0.187 |
| AGCGGTCG | -0.372 |
| ATACGTCA | 0.101 |
| GACGACGC | 0.0116 |
| CGTGTCAC | 0.0622 |
| ATCGGCCA | -0.147 |
| ACCAGCCA | -0.0724 |
| CACGTACC | -0.125 |
| AAAGGTGT | -0.0487 |
| CAGGACTC | -0.189 |
| CCCCAGAG | -0.184 |

| Sequence | PBM E-score |
| --- | --- |
| ACCCACTC | -0.113 |
| AATTGACT | 0.0169 |
| CCTTATTA | 0.187 |
| AAGGCATT | -0.3 |
| CTAGCTGC | -0.213 |
| CAAGTTTC | 0.254 |
| ACCATGCT | -0.145 |
| CCGTCGGA | 0.0057 |
| GACCAATA | 0.0262 |
| AGTGCCAT | -0.185 |
| GCACTAGC | -0.124 |
| CCGCCCTC | -0.012 |
| GGCTGCTA | -0.037 |
| TCCATTCA | -0.00786 |
| CAACTCGG | -0.012 |
| AGAGCAGC | -0.00353 |
| GACTGACC | -0.216 |
| ACCCACAA | 0.144 |
| AATAAGTG | 0.0656 |
| AGCTTCTA | -0.129 |
| ACACATCT | 0.0076 |
| CCCACTAA | 0.126 |
| AAGGTCGG | 0.0198 |
| TAAAATGA | 0.258 |

| Sequence | PBM E-score |
| --- | --- |
| CCAGTGGC | -0.0455 |
| CTATTACC | -0.0928 |
| ACGGGTAC | -0.139 |
| GGGCTGAC | -0.0565 |
| AAGTAGAG | -0.0406 |
| CGTTCGAC | -0.223 |
| ACCGACTC | 0.00135 |
| ATGACCCC | -0.0449 |
| AGAAATGA | 0.14 |
| TACCAGAA | 0.253 |
| TGCATGCA | -0.0454 |
| AGCTCGTA | -0.238 |
| ATCGTCTC | -0.0664 |
| ACTACTAC | -0.102 |
| AAATGGCT | 0.0795 |
| ATTCAATG | 0.101 |
| AAGGTTAC | -0.0772 |
| GCTTTCCC | 0.0308 |
| CTTGTACC | 0.0204 |
| CGGGTGTA | 0.0799 |
| TACAGCGA | -0.043 |
| ATGACGCA | -0.0139 |
| CTCAACGA | -0.137 |
| ATGGGAGG | 0.186 |

| Sequence | PBM E-score |
| --- | --- |
| GCCCGGCA | -0.107 |
| CCCTAGCC | 0.0466 |
| CTTTAGGC | -0.187 |
| ACGTACAA | -0.0607 |
| CGTGGCAC | -0.0646 |
| CAGAGTCC | -0.0474 |
| CCCAGCTC | -0.144 |
| GAATCCTC | -0.0489 |
| ACAAAGAG | -0.12 |
| CAGTCGGC | 0.0214 |
| CGGATACG | -0.00902 |
| ATCTACGG | -0.0913 |
| GTCAGGCA | -0.05 |
| ACTACATG | 0.0147 |
| ATTTCATA | 0.124 |
| CGCGGCAA | -0.026 |
| GTACTTGA | -0.239 |
| CCTCGTAG | -0.0852 |
| CTTAACGA | 0.122 |
| CGTGTTGA | -0.0467 |
| AGCTATCG | -0.253 |
| AGTTCGTG | 0.0674 |
